Laboratory results from the supplement of paper PMC3334620.
Over roughly 33,000 sequences, “E-score (-0.5 to 0.5)” has its median near -0.01; the highest 2% begin near 0.26. Some of the results follow.

The sequences below were run against Ste12 (UniProt P13574) (assay: PBM E-score (8-mer binding enrichment) (E-score (-0.5 to 0.5)); higher = stronger / more preferred TF binding; most listed sequences are background and not binding sites). Details: protein concentration: 200 nM; construct: GST-DNA-binding domain.
Summary of the method: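 Full-length yeast transcription factors or their DNA-binding domains, GST-tagged and expressed with PURExpress, were applied at about 100-200 nM to universal all-10-mer Agilent arrays. These arrays had been made double-stranded by primer extension on fresh or once-stripped slides. Detection used fluorescent anti-GST, normalisation used masliner, and E-scores for ungapped eight-base words pooled with reverse complements came from the Universal PBM Analysis Suite.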

Sequence	PBM E-score
CTTTACAC	0.144
GCTGGCCC	-0.203
GCGCTGAC	0.0672
ATGACGGC	0.078
CGAGGAAA	0.0137
CTATTTTC	0.0376
CTGCACCC	-0.0758
ATATTCCA	0.0805
ATGGTCAA	0.0667
CGCAGACA	-0.057
CATAGTGA	-0.0589
CATCCCAG	-0.0583
CTAGGTAC	-0.156
ACCGAGCT	0.0151
GGATGCCC	-0.166
CATATACA	0.148
GCTTGTCA	-0.0245
CTCCCACA	-0.00169
CGTACCGC	-0.0216
ACACGGGA	-0.0631
AACCGACA	0.115
CAATTTGG	-0.0412
GGCCTTCA	-0.0265
AAATGGAG	-0.108
CACGTATG	-0.126

Sequence	PBM E-score
CGGAATCA	0.0602
CCCCGCGC	0.0272
GCCCGGGA	0.029
ACCACCCT	-0.127
CTATGGGC	-0.159
ATCGGCAC	-0.0825
AACACTTC	0.135
AAGCATAT	0.0466
AACCTTCA	-0.0332
CGGCTAGA	-0.134
ACCGGACA	-0.201
CAAAGCCC	-0.111
AGGAGTTG	-0.00808
ACGTGGAC	-0.14
CAGGCTAC	-0.0983
CGCATATC	0.105
CTGGTCAC	-0.256
GCCCCAGA	-0.0561
CCACACCC	0.148
CATGATCG	0.0593
TACTCCCA	0.056
ATAAATTC	0.102
AACAAGGT	-0.0738
AAGTCTAC	-0.116
CCGCACTC	-0.114

Sequence	PBM E-score
CAGGCAAC	-0.0818
CATAACTC	-0.0102
CGTGTCGA	0.0241
GCAATAAA	0.279
AATATACG	0.0752
AGCCTACC	-0.137
ACGACAGC	-0.0551
AATAGATT	0.134
CGATTAAG	0.062
CACCCTAG	0.105
CGTATAAG	-0.0378
ATCTGACG	-0.0745
ATAATGTG	0.17
ATCGCATG	-0.0289
ACCCTCAG	-0.0573
GCGAGCGA	0.00126
AATGTGGC	0.0231
AAGATACT	0.0537
CCAAGTTC	-0.0421
GTGTTCCA	0.141
CGGCCCTA	-0.102
GTAAACTA	0.107
GCCGCTCA	-0.107
GCACCAGC	-0.101
ATTAGGAC	-0.179

Sequence	PBM E-score
TCTTACAA	0.0356
ACGGGAGG	-0.0864
CAACGAAA	0.13
GTTAATCA	0.0855
ACGCCCTA	-0.113
AGCCGTGA	0.125
ACAGTTAA	0.144
AGTTGCGG	0.209
AGTTAATC	0.0298
AGTCAACG	-0.226
ATGGAACG	0.0382
GAAAACAC	0.0529
ATCCAGAC	-0.0146
GCACCAAA	0.122
CTTAGTAC	-0.0372
AGAGGTGA	-0.042
GTAAGCCA	-0.0467
CATCATGC	-0.00066
AAGCGGAA	0.0453
ACAAGGTC	0.0964
ATCCATCC	0.07
GACGCAAC	-0.0807
AAGTCCAT	-0.184
ATTTCTTG	0.128
GAGTTACA	0.183

Sequence	PBM E-score
ATATTCTC	0.108
CATATGAC	0.0788
CCCATCCG	-0.00603
CATTATGC	0.0482
CCCATATA	0.115
GGGACACA	0.17
AGTGAAAC	0.394
CCTCGAAC	-0.0197
CTCTCGGA	0.0537
TCTGAAAA	0.12
CATATAAA	0.0963
GAGCCACC	-0.028
ATGCAAAA	0.133
CATCACCG	-0.119
CGGATCTC	-0.202
GCACTTCA	-0.0777
CCTGTCTA	0.0313
CGCAAGTA	0.00501
AACCGAAC	0.0486
CCGCTCGA	0.0774
ATAGTGTC	-0.0365
CGGTGAGC	-0.157
CAACTCCC	0.0312
CGCTTCGC	-0.25
AAGTTCAC	0.0472

Sequence	PBM E-score
CCGACAAA	-0.0229
CCGAGAAG	-0.0038
AGTTCACG	-0.169
CCTGGCGC	0.0112
AACCCAAT	0.06
CAACCCAC	0.0306
CCCTGTAC	-0.19
ATTCACGG	0.00567
AGCTAGTG	-0.0478
GTTAAGAA	0.0624
CCTCGTGA	0.0398
TGTTATAA	0.283
GCGGAGAA	0.0895
AATGGACA	-0.081
AAGAAGGC	-0.0892
CGTAGCTC	-0.0695
CATTTAAG	-0.0794
GTAAAGAA	0.0147
CGAATGAC	0.142
GCAGTTAC	-0.0853
CATTATAG	0.12
GACGCCTC	-0.0132
GGGAATTA	0.109
CACTCTAA	0.00474
ACCGTTAC	-0.0206

Sequence	PBM E-score
CCCACGCC	-0.0857
ATACGAAT	0.00827
GTTACAGA	0.18
ATCTCTCG	-0.0464
CCTCATCA	0.066
TCGATTCA	0.118
AATATAGA	0.123
AAACTCCT	-0.00655
ACAGAAAA	0.232
AGATCATA	-0.087
CCGCAAGA	-0.0329
GACCTTGC	-0.216
GCATAGCA	-0.0674
AAGTTTAT	0.158
AGGTGCAC	-0.0399
GTATCCCA	-0.025
GGGGTCTA	-0.00725
CACTACTA	-0.049
ATTCGCAA	0.0321
AAAGGCAA	0.133
CACCCATG	-0.149
ATATGAGC	-0.042
